Source: patent publication US20170058015A1 (ALBERT EINSTEIN COLLEGE OF MEDICINE, published 2017)

How the values were obtained:
[1] = target: T1, recombinant human 4-1BB-Fc fusion protein (human, UniProt Q07011 24-186); test: flow cytometry, Protein A microbeads coated with 4-1BB-Fc; detection antibody to the synTac heavy chain isotype
T1 construct: From commercial sources; coated on Protein A microbeads; also called human receptor; not shown: Fc of the commercial fusion protein

[2] = target: T2, recombinant mouse 4-1BB-Fc fusion protein (mouse, UniProt P20334 24-187); test: as above
T2 construct: From commercial sources; coated on Protein A microbeads; also called murine 4-1BB; murine receptor; not shown: Fc of the commercial fusion protein
T2 sequence (looked up): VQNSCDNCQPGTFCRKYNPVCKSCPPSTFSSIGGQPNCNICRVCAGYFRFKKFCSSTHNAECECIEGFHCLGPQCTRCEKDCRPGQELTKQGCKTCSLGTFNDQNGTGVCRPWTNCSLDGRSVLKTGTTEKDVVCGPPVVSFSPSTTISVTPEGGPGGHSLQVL

B1: synTac 69/98 (DL1, disulfide lock-1; 4-1BBL Q94C:P245C) (Fc fusion)
b2m: VYLKTNVFLGCGASGGGGSGGGGSMIQKTPQIQVYSRHPPENGKPNILNCYVTQFHPPHIEIQMLKNGKKIPKVEMSDMSFSKDWSFYILAHTEFTPTETDTYACRVKHASMAEPKTVYWDRDMGGGGSGGGGSGGGGSGGGGSGGGGS[sequence of about 200 residues with changes not given]SGSGATNFSLLKQAGDVEENPG
MHC heavy: GPHSLRYFVTAVSRPGLGEPRFIAVGYVDDTQFVRFDSDADNPRFEPRAPWMEQEGPEYWEEQTQRAKSDEQWFRVSLRTAQRCYNQSKGGSHTFQRMFGCDVGSDWRLLRGYQQFAYDGRDYIALNEDLKTWTAADTAALITRRKWEQAGDAEYYRAYLEGECVEWLRRYLELGNETLLRTDSPKAHVTYHPRSQVDVTLRCWALGFYPADITLTWQLNGEDLTQDMELVETRPAGDGTFQKWAAVVVPLGKEQNYTCHVHHKGLPEPLTLRWAAAGGPRGPTIKPCPPCKCPAPNLLGGPSVFIFPPKIKDVLMISLSPIVTCVVVDVSEDDPDVQISWFVNNVEVHTAQTQTHREDYNSTLRVVSALPIQHQDWMSGKEFKCKVNNKDLPAPIERTISKPKGSVRAPQVYVLPPPEEEMTKKQVTLTCMVTDFMPEDIYVEWTNNGKTELNYKNTEPVLDSDGSYFMYSKLRVEKKNWVERNSYSCSVVHEGLHNHHTTKSFSRTPGKGGSHHHHHHHH
chain: [sequence of about 200 residues with changes not given]
modifications: Engineered disulfides […] between 4-1BBL protomers. Disulfide between linker Cys and H-2Kd Cys84. Fc hinge disulfides.
notes: copies: 2 + 2 + 4
- binding result [1]: binds
- binding result [2]: binds

B2: synTac 70/99 (DL2; 4-1BBL Q94C:P242C) (Fc fusion)
b2m: VYLKTNVFLGCGASGGGGSGGGGSMIQKTPQIQVYSRHPPENGKPNILNCYVTQFHPPHIEIQMLKNGKKIPKVEMSDMSFSKDWSFYILAHTEFTPTETDTYACRVKHASMAEPKTVYWDRDMGGGGSGGGGSGGGGSGGGGSGGGGS[sequence of about 200 residues with changes not given]SGSGATNFSLLKQAGDVEENPG
MHC heavy: B1 MHC heavy
chain: [sequence of about 200 residues with changes not given]
modifications: Engineered disulfides […] between 4-1BBL protomers. Disulfide between linker Cys and H-2Kd Cys84. Fc hinge disulfides.
notes: copies: 2 + 2 + 4
- binding result [1]: binds
- binding result [2]: binds
